# Results published in the supplement of paper PMC4604168 (melanoma cell lines).
# The list shows a part of the results. Single values are uncertain, as repeats are few or missing.
# Test system: MZ2-MEL
# Test: cell count relative to DMSO control; melanoma cells; higher = more viable cells
# Conditions: library dose: low library concentration; 72 h
# 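Also: cell number obtained by counting DAPI-stained nuclei in high-throughput microscope images with image analysis software, screen run in 1,536-well plates.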
row,Structure (SMILES),cell count
1,"CC1(C)CCC(c2ccc(Cl)cc2)=C(CN2CCN(c3ccc(C(=O)NS(=O)(=O)c4ccc(N[C@H](CCN5CCOCC5)CSc5ccccc5)c(S(=O)(=O)C(F)(F)F)c4)cc3)CC2)C1 + C[C@]1(c2nc3c(C(N)=O)cccc3[nH]2)CCCN1 [Veliparib] (first compound 0.4 µM, partner dose 1.4 µM)",93.7%
2,"Cc1ccc(Nc2nccc(N(C)c3ccc4c(C)n(C)nc4c3)n2)cc1S(N)(=O)=O [Pazopanib] + CC(=O)c1c(C)c2cnc(Nc3ccc(N4CCNCC4)cn3)nc2n(C2CCCC2)c1=O [palbociclib] (first compound 0.4 µM, partner dose 0.04 µM)",73.5%
3,"O=C(/C=C/c1cccnc1)NCCCCC1CCN(C(=O)c2ccccc2)CC1 + CC(=O)O[C@@]12CO[C@@H]1C[C@H](O)[C@@]1(C)C(=O)[C@H](O)C3=C(C)[C@@H](OC(=O)[C@H](O)[C@@H](NC(=O)OC(C)(C)C)c4ccccc4)C[C@@](O)([C@@H](OC(=O)c4ccccc4)[C@H]21)C3(C)C [Docetaxel] (first compound 0.01 µM, partner dose 0.0001 µM)",32.9%
4,"O=C(/C=C/c1cccnc1)NCCCCC1CCN(C(=O)c2ccccc2)CC1 + COc1ccc(C2=N[C@@H](c3ccc(Cl)cc3)[C@@H](c3ccc(Cl)cc3)N2C(=O)N2CCNC(=O)C2)c(OC(C)C)c1 [Nutlin-3] (first compound 0.01 µM, partner dose 0.1 µM)",48%
5,"O=C(/C=C/c1cccnc1)NCCCCC1CCN(C(=O)c2ccccc2)CC1 + COc1ccc(Cl)c(Nc2nc3ccccc3nc2NS(=O)(=O)c2cccc(NC(=O)C(C)(C)N)c2)c1 [XL147] (first compound 0.01 µM, partner dose 0.8 µM)",34.7%
